Laboratory results reported in PubChem BioAssay AID493208 (National Center for Advancing Translational Sciences (NCATS), 2011).
In all, about 44,000 compounds went through this assay and about 340 (0.77%) were called active. Roughly 5% stayed inconclusive and do not appear here. The call rests on the fitted dose curve; in most records, active means well fitted inhibition curve with a large enough effect; inconclusive means small, poorly fitted or top-dose-only effect; inactive means flat fitted curve, though single readings scatter. This is one part of the list.

Test: Acumen qHTS Assay for Inhibitors of the mTORC1 Signaling Pathway in MEF (Tsc2-/-, p53-/-) Cells: Sytravon; further: nearly all actives have a fitted effect of over 50% in size;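 on activity change, negative = inhibition: plate controls were DMSO for no effect and rapamycin for full effect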
Settings: phospho-rpS6 immunofluorescence/PI, 24 h; series mostly up to 38.3 µM; activity change, negative = inhibition: at the top concentration
How it was run: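 Read-out: phospho-S6 Alexa-488 intensity over PI intensity per well, scored as % active cells using thresholds from rapamycin (7.5 nM) and DMSO controls. Tsc2-/-, p53-/- MEFs exposed to compound for 24 h; PI cell count recorded as viability.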
Potency means the concentration at half of the fitted maximal effect.

Row | Structure (SMILES) | activity change, negative = inhibition | Potency
1 | CCN(C(=O)c1cc2c(Cl)nc3ccc(C)cc3c2s1)c1cc(OC)ccc1OC | inactive: -14.7% | 
2 | CCC(=O)Nc1ccc(C)cc1-c1nc2ccccc2n(Cc2ccccc2)c1=O | inactive: 0.333% | 
3 | COc1ccccc1C(=O)Nc1c(C(=O)Nc2ccc(C)cc2)oc2ccccc12 | inactive: -0.644% | 
4 | CC1(c2ccccc2)CC(C)(C)N(C(=O)c2ccccc2Cl)c2ccccc21 (centres undefined) | inactive: -0.922% | 
5 | COc1ccc(NC(=O)C2CCCN2S(=O)(=O)c2ccc3c(c2)CCCC(=O)N3)cc1Cl (centres undefined) | inactive: 6.3% | 
6 | COc1ccccc1CNC(=O)c1cc(-c2ccccc2)n[nH]1 | inactive: -8.25% | 
7 | Cc1ccc2nc(NC(=O)CSc3ncc(C(=O)Nc4ccccc4)c(=O)n3C)sc2c1 | inactive: -0.184% | 
8 | O=C(NCCCN1CCN(c2cccc(Cl)c2)CC1)c1nnc(Cc2ccc(F)cc2Cl)o1 | inactive: 1.44% | 
9 | Cc1ccc(N2C(=O)C(CC(=O)Nc3ccccc3)N(CCC3=CCCCC3)C2=O)cc1 (centres undefined) | inactive: -6.12% | 
10 | CCc1ccc(S(=O)(=O)c2cnc(SCC(=O)Nc3ccc(OC)cc3OC)[nH]c2=O)cc1 | inactive: -2.21% | 
11 | Cn1c2ccc(F)cc2c2nnc(SCCN3CCCCC3)nc21 | inactive: -16.3% | 
12 | CC(C)NC(=O)c1sc2ncccc2c1-n1cccc1 | inactive: 3.75% | 
13 | CCOc1ccc(CCNC(=O)c2sc3nc4n(c(=O)c3c2C)CCCC4)cc1 | inactive: 7.3% | 
14 | Cc1sc2c(c1C)c(=O)n(Cc1ccccc1)c(=O)n2CC(=O)Nc1cccc(Cl)c1 | inactive: -11.1% | 
15 | O=C(O)Cn1nc(N2CCN(c3ccccc3)CC2)ccc1=O | inactive: 2.5% | 
16 | CCOC(=O)Cn1cnc2c(cnn2-c2ccc(C)c(C)c2)c1=O | inactive: -4.84% | 
17 | CC1CCC(NC(=O)CCc2cn(Cc3ccc(F)cc3)c3ccccc23)CC1 (centres undefined) | inactive: 2.79% | 
18 | COc1ccc(NC(=O)c2nc(S(=O)(=O)Cc3ccc(C)cc3)ncc2Cl)cc1 |  | active: 3.69 µM
19 | Cc1ccccc1C(=O)NCc1ccc2c(c1)CCN2C(=O)c1ccc(F)cc1 | inactive: -0.333% | 
20 | Cc1nn2c(=O)cc(COC(=O)COc3ccccc3C)nc2s1 | inactive: 0.463% | 
21 | CCOc1ccc(C(=O)c2cn(CC(=O)Nc3ccc(C)c(C)c3)c3ccc(OCC)cc3c2=O)cc1 | inactive: -4.13% | 
22 | COc1ccccc1NC(=O)C1CCN(c2ncnc3c2nc2n3CCCCC2)CC1 | inactive: 0.479% | 
23 | COc1cc2c(cc1OC)C(COc1ccc(C(C)C)cc1)N(C(=O)COc1ccccc1)CC2 (centres undefined) | inactive: 14.3% | 
24 | COc1ccc(N2CC(NC(=O)c3ccc(S(=O)(=O)N4CCOCC4)cc3)CC2=O)cc1 (centres undefined) | inactive: 0.558% | 

Row | Structure (SMILES) | activity change, negative = inhibition | Potency
25 | CCOC(=O)CSc1ncnc2c1c(-c1ccccc1)cn2-c1ccc(OC)cc1 | inactive: -4.77% | 
26 | CCS(=O)(=O)c1nc(S(=O)(=O)c2ccc(C)cc2)c(NCc2ccccc2Cl)s1 | inactive: -8.01% | 
27 | COc1ccc(OCC(=O)N2CCN(C(=O)c3ccc(OC)cc3)CC2)cc1 | inactive: -1.8% | 
28 | CCOc1ccc(Nc2nc(Nc3ccc(OCC)cc3)nc(N3CCOCC3)n2)cc1 |  | active: 2.33 µM
29 | COc1ccc(CCNC(=O)CCCn2c(=O)c3cccn3c3ccc(F)cc32)cc1OC | inactive: 3.19% | 
30 | COc1ccc(NC(=O)CC2C(=O)N(c3ccc(C)cc3)C(=O)N2C2CCCC2)cc1 (centres undefined) | inactive: -8.56% | 
31 | O=C(COc1ccc(Br)cc1)Nc1cccc2cccnc12 | inactive: -4.23% | 
32 | COC(=O)CN1C(=O)C(C)(C)c2cc(S(=O)(=O)Nc3ccc(C(C)C)cc3)ccc21 | inactive: -4.9% | 
33 | CC(NC(=O)c1cc2ccccn2n1)c1ccccc1 (centres undefined) | inactive: 3.24% | 
34 | COc1cccc(NC(=O)c2oc3ccccc3c2NC(=O)Cc2cccc(C)c2)c1 | inactive: 1.13% | 
35 | COC(=O)c1ccc(Cl)cc1NC(=O)N1CCC(CN2CCC(C)CC2)CC1 | inactive: 1.37% | 
36 | CCc1cccc(NC(=O)c2coc(=O)c3ccccc23)c1 | inactive: -5.62% | 
37 | Cc1cn2c(=O)cc(COC(=O)C(C)Oc3ccccc3)nc2s1 (centres undefined) | inactive: 4.94% | 
38 | O=C(NCc1ccc(Cl)cc1)c1cc(-c2ccc(F)cc2)on1 | inactive: -1.24% | 
39 | CCc1ccc(-n2nc(CO)c(C(=O)NCCCCc3ccccc3)n2)cc1 | inactive: -0.613% | 
40 | Cc1ccccc1OCC(=O)N(Cc1ccc(C(C)C)cc1)C1CCS(=O)(=O)C1 (centres undefined) | inactive: 1.9% | 
41 | O=C(Nc1ccc(F)c(Cl)c1)C1CCCN1S(=O)(=O)c1ccc(F)cc1 (centres undefined) | inactive: -1.49% | 
42 | Cc1ccc(S(=O)(=O)c2nc(-c3ccccc3)oc2SCC(=O)NC2CCCCC2)cc1 | inactive: -13.3% | 
43 | CCOC(=O)C1=C(CS(=O)(=O)c2ccc(C)c(C)c2)NC(=O)NC1c1ccccc1OCC (centres undefined) | inactive: 1.59% | 
44 | CCOc1ccc(NC(=O)Cn2c(=O)n(Cc3nc(-c4ccccc4)no3)c(=O)c3ccccc32)cc1 | inactive: -1.33% | 
45 | O=C(Cn1c(=O)ccc2cc(S(=O)(=O)N3CCCC3)ccc21)NCc1ccc(F)cc1 | inactive: -2.36% | 
46 | COc1ccc(N(CC(=O)N2CCN(c3cccc(OC)c3)CC2)S(=O)(=O)c2c(C)noc2C)cc1 | inactive: -0.226% | 
47 | COc1cc(OC)c(NC(=O)c2ccc3c(Cl)c4c(nc3c2)CCCC4)cc1Cl | inactive: -9.49% | 
48 | COc1ccc(CCNC(=O)CSCc2nc(-c3ccc(OC)c(OC)c3)oc2C)cc1OC | inactive: 3.04% | 

Row | Structure (SMILES) | activity change, negative = inhibition | Potency
49 | COCCNc1ccc(-c2nc(-c3cccc(C)c3)no2)cc1[N+](=O)[O-] | inactive: -7.43% | 
50 | CN1C(=O)c2ccccc2Sc2ccc(NC(=O)COc3ccc(Cl)cc3)cc21 | inactive: -15% | 
51 | Cn1c(-n2cccc2)c(-c2c(-c3ccc(F)cc3)[nH]c3c2c(=O)[nH]c(=O)n3C)c(=O)[nH]c1=O | inactive: 1.58% | 
52 | CC1CCCN(C(=O)Cn2c(=O)n(CC3CCC(C(=O)NC(C)C)CC3)c(=O)c3sccc32)C1 (centres undefined) | inactive: -0.296% | 
53 | COc1ccc(-n2ncc3c2ncn2nc(-c4ccc(Cl)cc4Cl)nc32)cc1 | inactive: 4.54% | 
54 | COc1cccc(OC)c1Cn1nnc2c(=O)[nH]c(C3CCN(C(=O)c4ccccc4)CC3)nc21 | inactive: 0.16% | 
55 | Cc1cc(NC(=O)CN2C(=O)CSc3ccc(S(=O)(=O)N(C)C)cc32)ccc1Br | inactive: -6.52% | 
56 | CSc1ccc(CCNC(=O)c2ccc3c(c2)nc2n3CCOC2)cc1 | inactive: 15.6% | 
57 | CCOC(=O)c1c(NC(=O)c2nc(SC)ncc2Cl)sc(C)c1C | inactive: 6.01% | 
58 | COc1cccc(-c2ccnc3[nH]n(-c4ccccc4)c(=O)c23)c1 | inactive: 2.48% | 
59 | Cc1ccc(-n2c(SCC(=O)N3CCC(C)CC3)nc3c([nH]c4ccccc43)c2=O)cc1 | inactive: 5.47% | 
60 | Cc1ccc(NC(=O)c2ccc(F)c(S(=O)(=O)N3CCc4ccccc4C3)c2)cc1F | inactive: 15.3% | 
61 | COc1ccccc1CNC(=O)c1cc2c(=O)n(Cc3cccs3)ccc2nc1C | inactive: 1.2% | 
62 | Cn1c(=O)n(CCCc2ccccc2)c(=O)c2c1nc1n2CCN1c1ccccc1 | inactive: 6.87% | 
63 | CCOC(=O)c1scc(-c2ccc(C)cc2)c1S(=O)(=O)Nc1ccc(F)c(F)c1 | inactive: -9.75% | 
64 | COc1ccc2c(c1)c(=O)c(C(=O)c1ccc(Cl)cc1)cn2CC(=O)Nc1ccc2c(c1)OCO2 | inactive: 3.4% | 
65 | CCN(Cc1ccccc1)C(=O)CCS(=O)(=O)c1ccc2c(c1)oc(=O)n2C | inactive: -5.1% | 
66 | CCOC(=O)N1CCc2c(sc(NCc3sccc3C)c2C(=O)Nc2ccccc2OCC)C1 | inactive: 1.83% | 
67 | CCOC(=O)c1ccc(NC(=O)CN2C(=O)CC(c3ccc(C)c(C)c3)=Nc3ccccc32)cc1 | inactive: -14.6% | 
68 | Cc1c(Cl)cccc1NC(=O)NCCOCCn1c(=O)oc2ccccc21 | inactive: 1.15% | 
69 | CCOc1ccc(CCNC(=O)c2ccc3c(c2)N(Cc2cccc(Cl)c2)C(=O)c2ccccc2S3(=O)=O)cc1OCC | inactive: 0.0286% | 
70 | Cc1cc(-c2nc3ccccc3s2)ccc1NC(=O)c1cc(Cl)ccc1Cl | inactive: 4.4% | 
71 | COc1ccc2c(C)c(CCC(=O)NCc3ccc(OC)c(OC)c3)c(=O)oc2c1 | inactive: -3.11% | 
72 | Cc1sc(NC(=O)COc2ccc(C(C)(C)C)cc2)c(C(=O)OC(C)C)c1C | inactive: -1.18% | 

Row | Structure (SMILES) | activity change, negative = inhibition | Potency
73 | CCc1ccc(N2C(=O)CS(=O)(=O)C23C(=O)N(Cc2ccccc2F)c2ccccc23)cc1 (centres undefined) | inactive: -5.67% | 
74 | COc1cc(-c2noc(-c3cc(C)[nH]n3)n2)cc(OC)c1OC | inactive: 0.553% | 
75 | COc1cccc(NC(=O)C2CCN(S(=O)(=O)c3cc(-c4noc(C)n4)ccc3C)CC2)c1 | inactive: -3.8% | 
76 | CCN1CCN(C(=O)c2cnn(-c3cccc(C)c3)c2C2CCN(C(=O)OC(C)(C)C)CC2)CC1 | inactive: -2.61% | 
77 | COc1cccc(CNC(=O)c2cccn2-c2nnc(N3CCCC3)s2)c1 | inactive: 5.6% | 
78 | COc1ccc(C2CC(=O)c3c([nH]c(C(=O)OCCOc4ccccc4)c3C)C2)cc1OC (centres undefined) | inactive: -11.3% | 
79 | CCn1cc(C(=O)N2CCN(c3ccccc3)CC2)c(=O)c2cc(S(=O)(=O)N3CCC(C)CC3)ccc21 | inactive: -1.18% | 
80 | CCOc1ccc(NC(=O)c2cn3c4c(ccc(Cl)c4c2=O)OC(C)C3)cc1 (centres undefined) | inactive: 1.68% | 
81 | Cc1ccc(-c2noc(C3CC(=O)N(c4ccc5c(c4)OCCO5)C3)n2)cc1 (centres undefined) | inactive: 0.918% | 
82 | COc1ccc(CNC(=O)C2CCN(S(=O)(=O)c3cn(C)cn3)CC2)cc1 | inactive: 0.597% | 
83 | COc1ccc(NC(=O)N(Cc2ccco2)C2CCN(C(C)=O)CC2)c(OC)c1 | inactive: -7.64% | 
84 | CCSc1nc(=O)c2c(n1C)NC(=O)CC2c1ccc(O)cc1OC (centres undefined) | inactive: -9.83% | 
85 | CCc1ccc(OCC(=O)NCC(c2ccc(OC)cc2)N2CCOCC2)cc1 (centres undefined) | inactive: -4.56% | 
86 | Cc1cccc(C)c1NC(=O)CN(C)S(=O)(=O)c1ccc2c(c1)n(C)c(=O)c(=O)n2C | inactive: -1.69% | 
87 | Cc1cccc(C(=O)N(Cc2nc(-c3ccc(Cl)cc3)no2)C(C)C)c1 | inactive: -6.39% | 
88 | CC(=O)c1cccc(NC(=O)Cn2c(C)c3cnn(-c4ccccc4)c(=O)c3c2C)c1 | inactive: -11.1% | 
89 | Cc1ccc2c(CNC3CCC(C)CC3)c(C(=O)O)n(Cc3cccc(F)c3)c2c1 (centres undefined) | inactive: -0.671% | 
90 | CCN(CC)CCNC(=O)c1ccc2c(c1)N(Cc1ccccc1)C(=O)c1ccccc1S2=O (centres undefined) | inactive: -13% | 
91 | COc1ccc(-n2c(=O)c3sc4ccccc4c3n(Cc3ccccc3)c2=O)cc1 | inactive: -3.45% | 
92 | COc1cc2c(cc1OC)C(c1ccc(F)cc1)N(c1ccc(F)cc1)C(=O)C2 (centres undefined) | inactive: -1.98% | 
93 | COc1cc(NC(=O)c2cc3nc(-c4ccccc4)cc(-c4ccccc4)n3n2)c(OC)cc1Cl | inactive: -1.54% | 
94 | CC1CCN(c2nc3ccc(C(=O)NCc4ccc(Cl)cc4)cc3s2)CC1 | inactive: -3.35% | 
